# Measured values reported in the supplement of paper PMC4166925.
# ± gives the standard deviation of the averaged measurements. The full ranking holds about 33,000 sequences; the median of “E-score (dimensionless, -0.5 to 0.5)” is about -0.046, and the highest 2% start at about 0.36. This is one part of the list.
# System: T1, SpTbr T-box DNA-binding domain (GST fusion)
# T1 sequence: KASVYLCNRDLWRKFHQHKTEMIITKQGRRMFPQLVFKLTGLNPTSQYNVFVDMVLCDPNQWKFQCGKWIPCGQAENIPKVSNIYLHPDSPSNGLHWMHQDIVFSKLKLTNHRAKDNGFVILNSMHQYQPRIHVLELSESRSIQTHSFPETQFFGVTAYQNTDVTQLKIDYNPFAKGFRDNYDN
# Test: PBM E-score of 8-mer (E-score (dimensionless, -0.5 to 0.5)); Tbr is Tbrain of the sea star Patiria miniata (Pm) or the sea urchin Strongylocentrotus purpuratus (Sp); higher = stronger binding preference; most listed sequences are background and not binding sites
# Conditions: the construct has about 5 more residues each side
# Experimental: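 Universal protein-binding microarray (Agilent AMADID 016060, 60-bp probes with a 35-bp variable region) incubated with 200 nM GST-fused Strongylocentrotus purpuratus Tbr T-box DNA-binding domain (residues 362-554) in PBS pH 7.5. Scored for every ungapped 8-mer (given with its reverse complement) as E-score (range -0.5 to 0.5; >0.45 counts as bound) and Z-score of median probe intensity. Two replicate arrays (datasets 1 and 2).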
# 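Further: protein at 200 nM in PBS on universal double-stranded arrays.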
row,Sequence,PBM E-score of 8-mer
1,CCCATCGA,-0.2033 ± 0.0016
2,GTAAGTGA,0.212 ± 0.025
3,CGATATGA,0.0535 ± 0.0023
4,ACTTGCTA,0.175 ± 0.037
5,CTCCTCCC,-0.227 ± 0.022
6,AATTGCTA,-0.00496 ± 0.11
7,ACCCCCGT,-0.0835 ± 0.017
8,CCTTACGC,0.234 ± 0.049
9,AATTACTA,-0.0984 ± 0.045
10,CATATTAC,-0.0619 ± 0.059
11,CATACTCC,-0.197 ± 0.027
12,AGTTGCTG,0.0861 ± 0.023
13,AAGATACG,0.0921 ± 0.034
14,CGCATAAG,0.0206 ± 0.001
15,GCTGAAAC,-0.125 ± 0.041
16,AATGCTGG,-0.157 ± 0.0084
17,AGACTCGC,-0.00607 ± 0.025
18,ACGGGGCA,-0.207 ± 0.076
19,ATGAGTCG,-0.176 ± 0.071
20,GACAGCTA,0.19 ± 0.053
21,ATTCTGGG,-0.199 ± 0.01
22,CCCGCGGA,-0.00551 ± 0.091
23,AAACCAAG,-0.0255 ± 0.031
24,ATTAAATA,-0.15 ± 0.14
25,ATACAGGC,-0.0584 ± 0.0012

row,Sequence,PBM E-score of 8-mer
1,CCTGCAAC,-0.0401 ± 0.032
2,ATTATCAG,-0.0571 ± 0.018
3,AGATGTAC,-0.2621 ± 0.0025
4,AGGGTAAC,0.0635 ± 0.029
5,CGATGAGA,-0.126 ± 0.083
6,CCTATGTA,-0.254 ± 0.11
7,AGCAGGTA,-0.132 ± 0.031
8,GTATAGAC,-0.196 ± 0.021
9,ACCAAGGC,-0.0804 ± 0.11
10,CGCAAACG,0.041 ± 0.032
11,CAAACCGG,0.0381 ± 0.099
12,CGGCGCTA,0.152 ± 0.019
13,GCAGATGA,-0.205 ± 0.02
14,GCTCTGAA,-0.261 ± 0.022
15,ATCCGGGA,-0.173 ± 0.028
16,ATAGTCAC,0.178 ± 0.039
17,AGTGTCCG,0.0673 ± 0.038
18,AGGATATC,-0.107 ± 0.0085
19,AAGGTCCC,-0.175 ± 0.003
20,ACGGTAAC,-0.0798 ± 0.0085
21,ACGAATCT,0.000655 ± 0.053
22,GCCACAAA,0.12 ± 0.012
23,CAGACCGA,-0.328 ± 0.0075
24,CTTGATCA,0.113 ± 0.004
25,CGATTCAA,0.0122 ± 0.082

row,Sequence,PBM E-score of 8-mer
1,CATGTGGA,0.0666 ± 0.051
2,GGGCTCAC,0.0842 ± 0.098
3,ACCAGGTC,-0.0923 ± 0.02
4,AGACGAAC,-0.0672 ± 0.049
5,CTCTACAC,0.0043 ± 0.01
6,CAGGACAA,-0.0614 ± 0.1
7,GAAAATCA,-0.119 ± 0.076
8,CCGTACGA,-0.19 ± 0.043
9,CCGGCCGC,-0.0792 ± 0.084
10,CCCACGTA,-0.0631 ± 0.1
11,AGTCATGC,-0.272 ± 0.064
12,CTTCACCA,0.088 ± 0.067
13,ACACTCAG,0.232 ± 0.042
14,AGGAAATA,-0.00822 ± 0.0018
15,ACAGTGTC,0.213 ± 0.0024
16,TGTCAAAA,0.289 ± 0.021
17,AATTGTAT,-0.0215 ± 0.075
18,ATTTTGGA,-0.293 ± 0.0075
19,CACTTCCC,0.3234 ± 0.001
20,AAAAAAGG,-0.0919 ± 0.016
21,CTGAAATC,-0.129 ± 0.072
22,CTCTAGGA,-0.251 ± 0.049
23,AGCCCTGA,-0.235 ± 0.051
24,AGGAATCA,-0.0267 ± 0.014
25,AATTCTAT,-0.097 ± 0.025

row,Sequence,PBM E-score of 8-mer
1,CCTTTGCG,-0.0181 ± 0.026
2,ACTGAATC,-0.259 ± 0.018
3,GAGTCGTA,0.0581 ± 0.035
4,GGCCCGTA,-0.255 ± 0.018
5,GTTGTGTA,-0.0209 ± 0.068
6,CCAATCAC,0.204 ± 0.031
7,TCTAACAA,0.0792 ± 0.049
8,TCCCGGCA,-0.0546 ± 0.024
9,CAAGAAAG,-0.176 ± 0.025
10,CTTGTATA,-0.114 ± 0.019
11,CCACCCCC,0.0722 ± 0.01
12,AGGAACCA,-0.0655 ± 0.16
13,AGTACTGC,-0.0583 ± 0.0057
14,ATGTGCTG,0.161 ± 0.0054
15,GTCTGTGA,0.0568 ± 0.00098
16,ATACCAAC,0.0957 ± 0.0081
17,AATTGCTG,-0.167 ± 0.018
18,ACACGGCT,0.165 ± 0.026
19,CCCTTGCA,-0.0187 ± 0.061
20,GGAGACGA,-0.227 ± 0.05
21,CATACGCG,0.0844 ± 0.0024
22,GCCATGAA,-0.149 ± 0.023
23,ATGCGGCC,-0.1019 ± 0.0003
24,GTCAGACA,-0.0462 ± 0.062
25,CGGCCACC,-0.111 ± 0.016

row,Sequence,PBM E-score of 8-mer
1,TAACCCCA,-0.153 ± 0.022
2,GCATCGAC,-0.0694 ± 0.062
3,CCAATGAC,0.1109 ± 0.00047
4,GATCGTTA,0.0958 ± 0.044
5,CCAGGCGA,0.0496 ± 0.053
6,ATCAGCTG,-0.15 ± 0.0088
7,CTTCCGAA,-0.207 ± 0.016
8,TCCTAAAA,-0.241 ± 0.046
9,CACCAGAA,0.184 ± 0.052
10,AGGACACA,0.0518 ± 0.014
11,GATGACGA,0.0818 ± 0.016
12,CGCCAGAA,0.0206 ± 0.00035
13,CATTCCAA,-0.139 ± 0.019
14,TTAGGAAA,-0.26 ± 0.011
15,CTAGAAGA,-0.2 ± 0.024
16,AAGCTCCA,-0.245 ± 0.051
17,ACCGGCCC,-0.217 ± 0.033
18,AGGAATAC,-0.231 ± 0.07
19,TGGGGCAA,-0.171 ± 0.032
20,CGGGTATC,-0.0612 ± 0.15
21,GCGGTCGA,0.0401 ± 0.043
22,ATACACAG,-0.0282 ± 0.04
23,GGGTTATA,0.000145 ± 0.01
24,CATAAAGC,-0.213 ± 0.014
25,ATATTTAG,-0.139 ± 0.1

row,Sequence,PBM E-score of 8-mer
1,GATCCGGA,-0.0653 ± 0.072
2,ATAGCATC,-0.0717 ± 0.029
3,AATTTCGC,0.248 ± 0.033
4,ATACGGCG,-0.0448 ± 0.032
5,CACTCTTA,0.19 ± 0.015
6,GACACCTC,0.479 ± 0.009
7,GCCCGGGC,-0.0983 ± 0.046
8,GCGTGTCA,0.313 ± 0.024
9,ACTCCAGA,0.00754 ± 0.031
10,CTTGAAAC,0.0649 ± 0.033
11,CTTCGACA,0.173 ± 0.00078
12,AGAACGAT,-0.162 ± 0.036
13,ACTAGTAG,-0.057 ± 0.046
14,ATGCGCAC,-0.00479 ± 0.036
15,CGGAATAC,0.0187 ± 0.058
16,ACACTCTA,0.325 ± 0.017
17,AGGTCTCA,-0.066 ± 0.0096
18,ATCGTACA,-0.0175 ± 0.049
19,CATCCTAG,-0.0742 ± 0.097
20,AGGAAGAG,-0.317 ± 0.032
21,ACCCGTCT,-0.0132 ± 0.03
22,ACGGAGAG,-0.0526 ± 0.021
23,TCCTCACA,0.3492 ± 0.0024
24,TACTAAAA,-0.042 ± 0.079
25,GAGAGTGA,0.217 ± 0.046

row,Sequence,PBM E-score of 8-mer
1,AAATGTCA,-0.00106 ± 0.083
2,GGGAAACA,-0.00199 ± 0.0083
3,CCGAACGA,-0.0483 ± 0.014
4,AGCCCGCG,-0.139 ± 0.018
5,AATGTATG,-0.166 ± 0.049
6,ATTTTTTA,-0.209 ± 0.066
7,GATCGCCA,0.212 ± 0.1
8,TGTCGGAA,0.155 ± 0.016
9,GACCGGAA,-0.111 ± 0.058
10,CATCCATG,-0.0897 ± 0.077
11,CAAACGAC,0.125 ± 0.046
12,AAAGCGTG,0.326 ± 0.022
13,AGGGCGAA,-0.0427 ± 0.049
14,CCAGCCCA,-0.348 ± 0.066
15,CCTGAGGC,-0.0202 ± 0.018
16,CGTGTTTA,0.123 ± 0.047
17,CGCGGACA,0.134 ± 0.14
18,CGCTTTAC,-0.169 ± 0.048
19,AACGGGGA,-0.0588 ± 0.079
20,GCCAAGGA,-0.177 ± 0.036
21,GCCTGCGA,0.292 ± 0.032
22,GCAATTGA,0.0237 ± 0.0032
